In PubChem BioAssay AID488969 (Vanderbilt High Throughput Screening Facility, 2010):
In all, about 110,000 compounds were measured (“z-score”: median about -0.1, highest 2% from about 2 on). The list shows a part of the results. Calls of active or inactive are those of the source.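 The calls were made as follows: active = z-score in the third read window above 3 or below -3; inactive = the rest.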

What follows are compounds tested against Metabotropic glutamate receptor 8 (Rattus norvegicus) (UniProt P70579) (assay: rat mGluR8 modulators via GIRK flux, primary screen, cell-based, thallium flux, HTS (AID 488969)). Conditions: HEK293 rat mGluR8, GIRK (G protein-gated inwardly rectifying potassium channel) thallium flux, FluoZin2; at 10 µM; stronger effect = higher value; submaximal glutamate (EC20) added with thallium.
Chain of UniProt P70579 (P70579 whole entry, looked up): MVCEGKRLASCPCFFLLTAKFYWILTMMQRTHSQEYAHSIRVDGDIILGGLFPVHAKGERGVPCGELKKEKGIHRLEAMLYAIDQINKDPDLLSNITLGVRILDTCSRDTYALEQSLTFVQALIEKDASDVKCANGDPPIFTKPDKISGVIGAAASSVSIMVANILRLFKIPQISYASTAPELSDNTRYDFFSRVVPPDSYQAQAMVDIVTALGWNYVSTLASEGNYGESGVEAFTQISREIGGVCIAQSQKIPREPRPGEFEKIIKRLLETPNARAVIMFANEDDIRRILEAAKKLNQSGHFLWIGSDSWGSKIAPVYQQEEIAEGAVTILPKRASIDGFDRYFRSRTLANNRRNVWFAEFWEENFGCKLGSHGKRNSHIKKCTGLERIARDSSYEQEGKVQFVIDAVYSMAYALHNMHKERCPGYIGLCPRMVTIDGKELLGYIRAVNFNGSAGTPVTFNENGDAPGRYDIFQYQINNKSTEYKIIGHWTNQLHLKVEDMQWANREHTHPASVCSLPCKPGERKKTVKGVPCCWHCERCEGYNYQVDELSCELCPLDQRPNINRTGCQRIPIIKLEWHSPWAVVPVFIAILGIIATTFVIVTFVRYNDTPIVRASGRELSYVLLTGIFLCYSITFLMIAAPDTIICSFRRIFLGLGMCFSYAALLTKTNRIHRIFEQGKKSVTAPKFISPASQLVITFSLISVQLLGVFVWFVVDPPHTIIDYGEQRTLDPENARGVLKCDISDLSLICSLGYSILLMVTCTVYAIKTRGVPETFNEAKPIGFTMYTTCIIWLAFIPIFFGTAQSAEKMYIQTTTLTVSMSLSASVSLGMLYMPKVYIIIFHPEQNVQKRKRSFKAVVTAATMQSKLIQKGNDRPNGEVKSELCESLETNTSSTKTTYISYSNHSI

Question: `CCCC(=O)Nc1ccc(C(=O)N/N=C/c2cccnc2)cc1` was tested. Which z-score did it give?
Answer: The z-score was -0.18.

Question: With `Cc1onc(-c2ccccc2)c1C(=O)NCCc1ccc(Cl)cc1` as the compound, how does the z-score read?
Answer: Its z-score is 0.00877.

Question: With `COc1ccc(CNc2nc3nc(C)c(Cl)c(=O)n3[nH]2)cc1OC` as the compound, how does the z-score read?
Answer: Its z-score is 0.803.

Question: How did the z-score turn out when `Cc1sc2nc(CN(C(=O)NC3CCCCC3)C3CCCC3)[nH]c(=O)c2c1C` was run?
Answer: Its z-score is -0.352.

Question: `O=C(CN(CCO)c1ccccc1)NC12CC3CC(CC(C3)C1)C2` was tested. Which z-score did it give?
Answer: Its z-score is 0.0711.

Question: For `Cc1nc2ccccc2c(=O)n1/N=C/c1ccc(O)cc1`, which z-score is on record?
Answer: The z-score was 0.481.

Question: Which z-score does the source give for `O=C(CSc1nc2c(sc3ccccc32)c(=O)n1CCCN1CCCC1)NCC1CCCO1` (configuration not stated) here?
Answer: The z-score was 0.527.

Question: With `O=C1CC(c2ccccc2)CC(O)=C1C=Nc1ccc(Cl)cc1` (configuration not stated) as the compound, how does the z-score read?
Answer: The z-score was -0.141.

Question: For `S=C(Nc1ccccc1)N1CCn2c1nc1ccccc12`, which z-score is on record?
Answer: Its z-score is -0.0841.

Question: How did the z-score turn out when `COc1ccc(/C=N/n2c(C)nnc2C)c(OC)c1OC` was run?
Answer: Its z-score is -0.332.

Question: With `CCOC(=O)N1CCN(Cc2nc3c(c(=O)n(C)c(=O)n3C)n2Cc2cccc(C)c2)CC1` as the compound, how does the z-score read?
Answer: The z-score was 0.299.

Question: Which z-score does the source give for `c1ccc(Cn2c(CN3CCCC3)nc3ccccc32)cc1` here?
Answer: Its z-score is -0.186.

Question: `CCOC(=O)N1CCN(C(=O)CSc2nnc(CNC(=O)c3c(F)cccc3Cl)o2)CC1` was tested. Which z-score did it give?
Answer: Its z-score is -0.28.

Question: With `COc1cc2c(cc1OC)C(C(=O)O)C(c1ccc(C)o1)N(C)C2=O` (configuration not stated) as the compound, how does the z-score read?
Answer: Its z-score is -0.00596.

Question: Which z-score does the source give for `Cc1ccc(NC(=O)c2ccc(S(=O)(=O)NCC3CCCO3)cc2)cc1` (configuration not stated) here?
Answer: The z-score was -0.255.

Question: How did the z-score turn out when `CCCn1c(=O)c2ccccc2n2c(SCC(=O)c3ccccc3)nnc12` was run?
Answer: Its z-score is -2.52.

Question: `Cc1ccc(NC(=S)N(CCN2CCCCC2)Cc2ccco2)cc1` was tested. Which z-score did it give?
Answer: The z-score was 0.265.

Question: With `Cc1ccc(C)c(NC(=O)CSc2ccc(-c3cccs3)nn2)c1` as the compound, how does the z-score read?
Answer: Its z-score is 0.199.

Question: With `Cc1ccccc1NC(=S)NCC(c1cccnc1)N(C)C` (configuration not stated) as the compound, how does the z-score read?
Answer: The z-score was -0.204.

Question: `O=C(Cn1c(=O)sc2ccccc21)NCc1ccco1` was tested. Which z-score did it give?
Answer: The z-score was -0.176.

Question: `NC1=NC2(CCCCC2)N=C(Nc2ccc(F)cc2F)N1` was tested. Which z-score did it give?
Answer: The z-score was -0.173.

Question: With `COc1ccc(SCC(=O)c2cc(C)c(OC(=S)N(C)C)c(C)c2)cc1` as the compound, how does the z-score read?
Answer: Its z-score is 0.125.

Question: Which z-score does the source give for `CCOC(=O)/C(C(N)=NCc1ccco1)=C(/O)c1ccccc1` here?
Answer: The z-score was -0.494.

Question: Which z-score does the source give for `CCC(CC)C(=O)Nc1nc(-c2ccc3c(c2)CCN3C(=O)C2CC2)c(C)s1` here?
Answer: Its z-score is 0.662.

Question: For `C=CCOc1ccc(C2NC(=S)NC(C)=C2C(=O)c2ccccc2)cc1OC` (configuration not stated), which z-score is on record?
Answer: The z-score was -0.483.

Question: Which z-score does the source give for `CCC1CCc2c(sc(NC(=O)C3CC=CCC3C(=O)O)c2C#N)C1` (configuration not stated) here?
Answer: Its z-score is -0.313.

Question: For `Cc1cccc(C)c1-n1nnnc1C1(Nc2ccccc2)CCCCC1`, which z-score is on record?
Answer: The z-score was -0.148.

Question: With `Brc1ccc2ncnc(Nc3cccc4ccccc34)c2c1` as the compound, how does the z-score read?
Answer: The z-score was -0.494.

Question: `Cc1n[nH]c(=O)nc1NC1CCCCC1` was tested. Which z-score did it give?
Answer: Its z-score is -0.101.

Question: For `CC(C)Nc1nc(SCC(=O)Nc2ccccc2)nc(N2CCOCC2)n1`, which z-score is on record?
Answer: Its z-score is -0.25.

Question: How did the z-score turn out when `O=c1cc(-c2ccccc2)c2ccc(O)c(CN3CCCCC3)c2o1` was run?
Answer: Its z-score is -0.562.

Question: For `Cc1ccccc1NC(=O)c1ccc(-n2cncn2)nc1`, which z-score is on record?
Answer: The z-score was -0.0846.

Question: For `CSc1nc(C)c2c(n1)N(c1ccc(C(F)(F)F)cc1)CC2`, which z-score is on record?
Answer: Its z-score is 0.0153.

Question: With `COc1cc(/C=C2\C(=O)N(c3ccccc3)N=C2C)ccc1Oc1ccc([N+](=O)[O-])cc1[N+](=O)[O-]` as the compound, how does the z-score read?
Answer: The z-score was -0.164.

Question: With `c1ccc(COc2ccc(Nc3ncnc4nc[nH]c34)cc2)cc1` as the compound, how does the z-score read?
Answer: Its z-score is 0.0418.

Question: How did the z-score turn out when `COc1ccc(CCNC(=O)CSc2ccc3ccccc3c2)cc1OC` was run?
Answer: Its z-score is 0.159.

Question: `CC(=O)C(CC(=O)N1CCCc2ccccc21)C(=O)Nc1ccc(F)cc1` (configuration not stated) was tested. Which z-score did it give?
Answer: The z-score was -0.605.

Question: With `Cc1ccc(C)c(NC(=S)NNC(=O)c2csc(C(C)C)c2)c1` as the compound, how does the z-score read?
Answer: Its z-score is active: 12.

Question: `Nn1c(-c2cccc(Br)c2)n[nH]c1=S` was tested. Which z-score did it give?
Answer: Its z-score is -0.267.

Question: With `COc1ccc(C(=O)NCc2cccnc2)cc1` as the compound, how does the z-score read?
Answer: Its z-score is 0.111.

Question: Which z-score does the source give for `CC1CCCC(C)N1C(=O)CSc1nc2ncnc(N)c2[nH]1` (configuration not stated) here?
Answer: The z-score was -0.0584.

Question: `CC(C)CCn1c(O)c(N=NC(=O)Cn2ccc(C(F)(F)F)n2)c2ccccc21` was tested. Which z-score did it give?
Answer: The z-score was 0.0142.

Question: `Cc1ccc2c(c1)c1c(n2CC(O)Cn2ccnc2C)C(=O)CCC1` (configuration not stated) was tested. Which z-score did it give?
Answer: Its z-score is 0.314.

Question: With `O=c1c2ccccc2[nH]c(=S)n1-c1cccc(S(=O)(=O)N2CCCC2)c1` as the compound, how does the z-score read?
Answer: Its z-score is -0.0499.

Question: For `COc1ccc(N2C(=O)c3ccccc3NC2c2ccc(OC)c(Cn3nnc4ccccc43)c2)cc1` (configuration not stated), which z-score is on record?
Answer: The z-score was -0.206.

Question: `O=C(c1ccccc1)c1cccn1CC(=O)N1CCN(c2ccccc2)CC1` was tested. Which z-score did it give?
Answer: The z-score was -0.233.

Question: Which z-score does the source give for `Cc1ccc(O)c(-c2cc(-c3ccccc3[N+](=O)[O-])[nH]n2)c1` here?
Answer: Its z-score is -0.0176.

Question: Which z-score does the source give for `Cc1ccc(SC(C)c2nc(-c3ccncc3)no2)cc1` (configuration not stated) here?
Answer: Its z-score is -0.0796.

Question: For `C=CCn1c(=O)[nH]c2cc(C(=O)N3CCN(c4ccc(C(C)=O)cc4)CC3)ccc2c1=O`, which z-score is on record?
Answer: The z-score was -0.507.

Question: With `COC(=O)CC(=O)CSc1nc2c(cc1C#N)CCCCC2` as the compound, how does the z-score read?
Answer: Its z-score is -0.364.

Question: `Cc1nc2nc[nH]n2c(=O)c1NS(C)(=O)=O` was tested. Which z-score did it give?
Answer: Its z-score is 0.544.

Question: `Cc1cc(O)c(/C=N/Nc2ccccc2)c(=O)o1` was tested. Which z-score did it give?
Answer: The z-score was -0.248.

Question: `Cc1cc(/C=C2/SC(=O)N(CC(=O)N3CCOCC3)C2=O)c(C)n1-c1ccccc1F` was tested. Which z-score did it give?
Answer: Its z-score is -0.362.

Question: For `CCN(CC)C(=O)CSc1nnc(CNc2ccc(F)cc2)n1-c1ccccc1`, which z-score is on record?
Answer: Its z-score is 0.0593.

Question: With `Cc1cccc(OCC(=O)O/N=C(\N)Cc2cccs2)c1` as the compound, how does the z-score read?
Answer: The z-score was -0.706.

Question: For `COc1ccccc1NC(=S)NN1CCN(C)CC1`, which z-score is on record?
Answer: The z-score was -0.238.

Question: Which z-score does the source give for `COc1ccc(-n2c(C)cc(C(=O)NC3CCCCC3)c2C)cc1` here?
Answer: Its z-score is -0.564.

Question: With `Cc1ccccc1NC(=O)c1ccc(NC(=O)c2ccco2)cc1` as the compound, how does the z-score read?
Answer: The z-score was 0.0446.

Question: `N#CC1=C(N)Oc2n[nH]c(-c3cccs3)c2C1C1CCCCC1` (configuration not stated) was tested. Which z-score did it give?
Answer: The z-score was -0.253.

Question: `Cc1cccc(CSc2nc(N)c(C#N)c(-c3cccs3)c2C#N)c1` was tested. Which z-score did it give?
Answer: Its z-score is 0.0419.

Question: `Cc1cccc(C)c1OCC(=O)OC/C(O)=C(\C#N)c1nc2ccccc2[nH]1` was tested. Which z-score did it give?
Answer: The z-score was -0.226.

Question: For `CCCC(=O)c1c[nH]c(C(=O)NCCCN2CCOCC2)c1`, which z-score is on record?
Answer: Its z-score is 0.501.

Question: `CCOC(=O)C(NC(=O)NCc1ccc(F)cc1)(OCC)C(F)(F)F` (configuration not stated) was tested. Which z-score did it give?
Answer: Its z-score is -0.337.

Question: `O=C(CS(=O)(=O)c1cccc(Cl)c1)Nc1ccccc1Cl` was tested. Which z-score did it give?
Answer: Its z-score is -0.0905.

Question: Which z-score does the source give for `Cn1c(=O)c2c(nc(CN3CCN(C(=O)c4ccco4)CC3)n2CCc2ccccc2)n(C)c1=O` here?
Answer: Its z-score is -0.658.

Question: How did the z-score turn out when `CCCCN(C(=O)CCC(=O)Nc1cc(C)on1)C(C(=O)NC(C)(C)C)c1cccc(OC)c1OC` (configuration not stated) was run?
Answer: The z-score was -0.255.

Question: How did the z-score turn out when `CCCCn1c(-c2ccco2)nc2ccccc2c1=O` was run?
Answer: The z-score was -0.339.

Question: Which z-score does the source give for `C=CCc1cccc(/C=N/c2nc3ccccc3n2CC)c1O` here?
Answer: The z-score was 0.37.

Question: How did the z-score turn out when `CCc1ccccc1OCC(=O)NC1CCCC1` was run?
Answer: Its z-score is 0.237.

Question: For `CCn1cc(C2=NC(C)(C)CO2)c2ccccc21`, which z-score is on record?
Answer: Its z-score is -0.521.

Question: How did the z-score turn out when `O=C(CCSCCC(=O)NCc1ccccc1)NCc1ccccc1` was run?
Answer: The z-score was -0.211.

Question: `CCOCc1cn(CC(=O)c2ccc([N+](=O)[O-])cc2)c(C)nc1=N` was tested. Which z-score did it give?
Answer: Its z-score is 0.0311.
